# Measured values reported in PMC4336329 (PLoS ONE, 2015).
# Out of some 310,000 compounds screened, about 14,000 (4.5%) showed an effect of 50% or more. Effects have a minus sign here. The list shows a part of the results.
# Target: human ether-à-go-go-related gene (hERG) potassium channel (human, UniProt Q12809)
# Experiment: primary screen, population patch clamp on CHO cells stably expressing hERG
# 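Note: peak tail current of the secondary pulse compared with the same well before compound.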
# Chain of human ether-à-go-go-related gene (hERG) potassium channel (Q12809 whole entry, looked up): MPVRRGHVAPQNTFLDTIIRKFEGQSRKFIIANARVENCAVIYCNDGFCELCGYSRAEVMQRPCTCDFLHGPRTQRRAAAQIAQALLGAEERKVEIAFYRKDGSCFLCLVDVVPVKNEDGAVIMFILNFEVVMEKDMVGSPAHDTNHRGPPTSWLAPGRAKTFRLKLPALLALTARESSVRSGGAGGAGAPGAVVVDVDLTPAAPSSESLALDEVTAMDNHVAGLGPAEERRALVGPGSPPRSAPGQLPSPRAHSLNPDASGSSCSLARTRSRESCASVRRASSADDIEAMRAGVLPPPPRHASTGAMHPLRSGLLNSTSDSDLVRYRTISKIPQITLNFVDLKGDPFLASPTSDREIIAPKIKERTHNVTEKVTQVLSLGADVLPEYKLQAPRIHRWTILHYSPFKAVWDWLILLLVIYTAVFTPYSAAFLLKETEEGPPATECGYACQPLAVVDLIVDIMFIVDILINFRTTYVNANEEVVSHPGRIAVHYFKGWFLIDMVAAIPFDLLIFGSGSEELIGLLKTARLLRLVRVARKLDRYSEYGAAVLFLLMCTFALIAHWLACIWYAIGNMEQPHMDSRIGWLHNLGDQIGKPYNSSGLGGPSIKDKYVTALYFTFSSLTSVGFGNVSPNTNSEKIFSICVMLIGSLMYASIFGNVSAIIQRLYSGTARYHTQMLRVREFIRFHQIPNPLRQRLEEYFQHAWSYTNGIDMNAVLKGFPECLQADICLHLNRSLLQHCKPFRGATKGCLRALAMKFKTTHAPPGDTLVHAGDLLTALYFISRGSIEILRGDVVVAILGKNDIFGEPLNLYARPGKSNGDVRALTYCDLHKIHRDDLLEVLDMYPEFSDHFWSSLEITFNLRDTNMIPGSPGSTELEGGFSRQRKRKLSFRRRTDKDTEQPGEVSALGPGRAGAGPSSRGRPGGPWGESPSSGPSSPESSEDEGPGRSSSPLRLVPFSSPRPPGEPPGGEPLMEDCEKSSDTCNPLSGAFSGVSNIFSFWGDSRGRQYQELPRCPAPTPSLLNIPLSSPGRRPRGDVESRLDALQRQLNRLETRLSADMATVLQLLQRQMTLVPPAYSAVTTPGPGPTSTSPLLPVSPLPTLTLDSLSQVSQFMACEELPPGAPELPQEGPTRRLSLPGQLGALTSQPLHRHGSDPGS
row,Compound,"hERG current change (%, negative = inhibition) at 10uM [%]"
1,O=C(Nc1ccc(Cl)cc1)Nc1ccccc1CC[N+](=O)[O-],7.79
2,O=C(Nc1nc2ccc(Br)cc2s1)c1ccco1,19
3,COc1ccc(NC(=O)C(Cc2ccccc2)n2cccc2)cc1 (centres unmarked),-14.1
4,CCc1ccccc1NS(=O)(=O)c1cc2c(cc1C)n(C)c(=O)c(=O)n2C,-26.3
5,CC(=O)NN1C(=O)c2ccccc2NC1c1cccc([N+](=O)[O-])c1 (centres unmarked),11.3
6,COc1cc(/C=C(\NC(=O)c2ccccc2)C(=O)Nc2cccc(O)c2)c([N+](=O)[O-])cc1OC,-4.98
7,CC(C)Oc1ccc(CNC(=O)c2ccc3c(c2)N(C)CCS3)cc1,-8.67
8,Cn1nc(C(F)(F)F)c(-c2ccc(Br)cc2)c1NC(=O)CSCC(=O)O,-18.6
9,O=C(Nc1ccccc1)Nc1nnc(Cc2ccc([N+](=O)[O-])cc2)s1,-7.66
10,CN(CC(=O)Nc1ccc(F)c(F)c1F)C(=O)CCc1nc2sc3c(c2c(=O)[nH]1)CCCC3,-8.01
11,CCn1cc(CN2CCN(Cc3ccc(OC)c(C)c3C)C(CCO)C2)c(C)n1 (centres unmarked),-23.1
12,CC(C)c1ccc(NC2CCCN(C(=O)c3n[nH]c4c3CCC4)C2)cc1 (centres unmarked),5.38
13,Oc1ccc(Br)cc1CN1CCN(c2ccccc2)CC1,25.3
14,COc1ccc(C2c3ccc4ccccc4c3Oc3ncn4nc(Cc5ccccc5)nc4c32)cc1OC (centres unmarked),13.2
15,O=C(Nc1ccc(F)cc1)c1ccc2c(=O)n(CC3CCCO3)c(=S)[nH]c2c1 (centres unmarked),21.6
16,COc1ccc(Cc2nnn(CC(=O)O)n2)cc1,5.94
17,O=C(NCCNC(=O)c1cc(OCC(F)(F)F)ccc1OCC(F)(F)F)Nc1ccc(OC(F)(F)F)cc1,-6.34
18,CN(C)S(=O)(=O)c1cccc(C(=O)NCC2(N3CCOCC3)CCCCC2)c1,-13.4
19,Cc1nc2ccccc2c2oc(C(=O)NC3CC3)cc12,1.88
20,O=C(NCC1CC1)Nc1ccc(Cl)cc1,17.7
21,Cc1cccc(NC(=O)c2cc(-c3ccco3)nc3ccccc23)n1,4.05
22,CC(=O)c1cccc(NC(=O)CN(C)S(=O)(=O)c2cccc3nsnc23)c1,-31.9
23,O=C(CN1C(=O)COc2ccccc21)N(Cc1ccc2c(c1)OCO2)CC1CCCO1 (centres unmarked),-17.2
24,CCOc1ccc(C(=O)Nc2c3c(nn2-c2ccc(C)cc2)CS(=O)C3)cc1OCC (centres unmarked),6.79
25,Cc1oc(-c2ccccc2F)nc1CS(=O)(=O)CC(=O)NC1CCCC(C)C1C (centres unmarked),-18
26,O=C(CSc1nnc(Cn2nnc(-c3ccccc3)n2)n1-c1ccccc1)Nc1ccc(F)cc1,3.55
27,O=C(c1cc2cc(F)ccc2[nH]1)N1CCN(c2ccc(F)cc2)CC1,-4.93

row,Compound,"hERG current change (%, negative = inhibition) at 10uM [%]"
1,Cc1ccc(N(C)S(=O)(=O)c2nnc(NC(=O)c3ccco3)s2)cc1,9.73
2,COCCCNC(=O)CNC(=S)N(Cc1ccccc1)Cc1cccnc1,-9.77
3,CCOC(=O)/C=C1/SCC(=O)N1CC(=O)Nc1cccc(F)c1,2.79
4,COc1cccc(C2CC3C(=O)C=CC2N3Cc2ccccc2)c1 (centres unmarked),2.61
5,O=S(=O)(Nc1nc(SCc2ccc(Cl)cc2)n[nH]1)c1ccc(F)cc1,-3.34
6,COc1ccc(CNC(=O)[C@H](C)NC(=O)[C@@H]2Cc3ccccc3CN2)cc1,11.7
7,Cc1oc(-c2cccc(Cl)c2)nc1CS(=O)(=O)CC(=O)NC1CC1,6.61
8,COC(=O)c1sc2nc(-c3ccco3)ccc2c1N,-7.36
9,O=C(O)c1ccccc1C(=O)c1cccc2ccccc12,11.1
10,O=C(Cc1sc(-c2ccccc2)nc1-c1ccccc1)Nc1ccccc1,5.75
11,CCN(CC(=O)Nc1c(F)cccc1F)C(=O)Cc1ccc(OC)c(S(=O)(=O)N2CCOCC2)c1,8.69
12,CCOc1cc(C2C(C#N)=C(N)Oc3n[nH]c(-c4ccccc4)c32)ccc1O (centres unmarked),-4.74
13,COc1ccc(S(=O)(=O)N(C)CC(=O)N2CCC(C(N)=O)CC2)cc1,5.54
14,O=C(/C=C/Nc1cccc(C(F)(F)F)c1)c1ccc(Oc2ncccn2)cc1,13.3
15,O=C(Nc1ccc(Cl)cn1)c1ccc(-c2ccc(Cl)c(Cl)c2)o1,10.1
16,CC(=O)c1ccccc1OC(=O)c1ccc([N+](=O)[O-])o1,18.5
17,COC(=O)c1ccc(-c2ccc([C@H]3[C@H]4C=CC[C@@H](C)[C@@H]4C(=O)N3Cc3ccccc3)c(F)c2)cc1,21.3
18,COc1ccc(-c2cc(=O)oc3cc(OCC(=O)NCCCn4ccnc4)ccc23)cc1,-65.4
19,CCn1nnnc1SCC(=O)N1CCN(c2ccccc2)CC1,-10.4
20,O=C1c2ccccc2-c2c1cccc2C(=O)N(CCO)CCO,-0.51
21,CNC(=O)Nc1cccc2cccnc12,2.73
22,CCC(C)N=Cc1c(NCc2ccco2)nc2c(C)cccn2c1=O (centres unmarked),-7.78
23,O=[N+]([O-])c1cc(C(F)(F)F)ccc1Sc1nccn1Cc1ccccc1,-30.3
24,Cc1ccc(C)c(N(C(=O)Cn2nnc3ccccc32)C(C(=O)NCc2ccco2)c2ccncc2)c1 (centres unmarked),0.187
25,Cc1cccc(OCCCn2c(CCNC(=O)C(C)C)nc3ccccc32)c1,-23.6
26,Cc1ccc(NC(=O)NCC2CCN(Cc3cc(C)ccc3Cl)CC2)c(C)c1,-58.3
